Laboratory results as given in the antibiotic and cytotoxicity screens of Wong et al. (2023).
Some of the results follow.

Experiments:
HSkMC = human skeletal muscle cells; assay: cytotoxicity call (relative viability < 0.9); conditions: 10 µM
HepG2 = assay: cytotoxicity call (relative viability < 0.9); conditions: 10 µM
S. aureus RN4220 = assay: growth inhibition call (relative growth <= 0.2); conditions: 50 µM

Row | Structure (SMILES) | cytotoxicity call (HSkMC) | cytotoxicity call (HepG2) | growth inhibition call (S. aureus RN4220)
1 | CC(C)CC#Cc1ccc2c(c1)O[C@@H](CN(C)C(=O)NC1CCCC1)[C@@H](C)CN([C@H](C)CO)S2(=O)=O | inactive | inactive | inactive
2 | COc1ccc(CN(C)C[C@H]2Oc3ccc(NC(=O)CCN4CCOCC4)cc3C(=O)N([C@@H](C)CO)C[C@H]2C)cc1 | inactive | inactive | inactive
3 | C[C@H](CO)N1C[C@H](C)[C@@H](CN(C)S(=O)(=O)c2ccc(C#N)cc2)OCc2cnnn2CCCC1=O | inactive | inactive | inactive
4 | C[C@H]1CN([C@@H](C)CO)S(=O)(=O)c2ccc(-c3ccc(F)cc3)cc2O[C@@H]1CN(C)C(=O)C1CCOCC1 | inactive | inactive | inactive
5 | C[C@@H](O)CNC(=O)C(=O)NC(C)(C)C | inactive | inactive | inactive
6 | O=C(/C=C/c1ccc(O)cc1)[C@H]1C(=O)[C@H]([C@@H]2O[C@H](CO)[C@@H](O)[C@H](O)[C@H]2O)C(=O)[C@@](O)([C@@H]2O[C@H](CO)[C@@H](O)[C@H](O)[C@H]2O)C1=O | inactive | inactive | inactive
7 | O=C(C[C@H]1CC[C@@H](NC(=O)C2CC2)[C@@H](CO)O1)NCCCN1CCOCC1 | inactive | inactive | inactive
8 | O=C(Nc1ccccc1)Nc1ccc(Nc2ccccc2)cc1 | inactive | active | inactive
9 | COc1cc(N2CCC(N3CCN(C)CC3)CC2)ccc1Nc1ncc(Cl)c(Nc2ccccc2S(=O)(=O)C(C)C)n1 | active | active | inactive
10 | COc1ccc(NC(=O)N(C)C[C@H]2OCCCC[C@@H](C)Oc3ccc(NC(=O)c4ccncc4)cc3C(=O)N([C@@H](C)CO)C[C@@H]2C)cc1 | inactive | inactive | inactive
11 | COc1ccc(CN(C)C[C@@H]2OCCCC[C@@H](C)Oc3ccc(NC(=O)Nc4c(C)noc4C)cc3C(=O)N([C@@H](C)CO)C[C@@H]2C)cc1 | inactive | inactive | inactive
12 | Cc1ccc(S(=O)(=O)N(C)C[C@H]2Oc3c(NC(=O)c4cc(C)nn4C)cccc3C(=O)N([C@@H](C)CO)C[C@H]2C)cc1 | inactive | inactive | inactive
13 | C[C@H](CO)N1C[C@H](C)[C@@H](CN(C)S(=O)(=O)c2cn(C)cn2)OCCCC[C@H](C)Oc2ccc(NC(=O)Nc3ccc(C(F)(F)F)cc3)cc2C1=O | active | inactive | inactive
14 | C[C@@H]1CN([C@H](C)CO)S(=O)(=O)c2ccc(-c3ccccc3F)cc2O[C@H]1CN(C)S(C)(=O)=O | inactive | inactive | inactive
15 | COc1ccc(S(=O)(=O)N(C)C[C@@H]2Oc3c(NS(C)(=O)=O)cccc3C(=O)N([C@@H](C)CO)C[C@@H]2C)cc1 | inactive | inactive | inactive
16 | CC(C)CC#Cc1ccc2c(c1)O[C@H](CN(C)CC1CCOCC1)[C@@H](C)CN([C@H](C)CO)S2(=O)=O | inactive | inactive | inactive
17 | Cc1noc(C)c1S(=O)(=O)Nc1cccc2c1O[C@H](CN(C)CC1CC1)[C@H](C)CN([C@H](C)CO)C2=O | inactive | inactive | inactive
18 | Cc1nc(-c2ccccc2)oc1CN | inactive | inactive | inactive
19 | N[C@@H](c1ccccc1)c1cc2ccccc2cn1 | inactive | inactive | inactive
20 | C[C@@H]1CN([C@@H](C)CO)C(=O)c2cc(N(C)C)ccc2O[C@@H](C)CCCCO[C@@H]1CN(C)Cc1ccc(C(=O)Nc2ccccc2N)cc1 | inactive | inactive | inactive
21 | C[C@@H]1CN([C@@H](C)CO)C(=O)c2cc(NC(=O)CCN3CCOCC3)ccc2O[C@H]1CN(C)S(C)(=O)=O | inactive | inactive | inactive
22 | C[C@H]1CN([C@@H](C)CO)C(=O)c2cccc(NC(=O)c3nc4ccccc4s3)c2O[C@H]1CN(C)S(C)(=O)=O | inactive | inactive | inactive
23 | C[C@@H]1CN([C@@H](C)CO)C(=O)c2cc(-c3cncnc3)cnc2O[C@H]1CN(C)C(=O)CN1CCOCC1 | inactive | inactive | inactive

Row | Structure (SMILES) | cytotoxicity call (HSkMC) | cytotoxicity call (HepG2) | growth inhibition call (S. aureus RN4220)
24 | O=C(O)CN(CCN(CC(=O)O)CC(=O)O)CC(=O)O | inactive | inactive | inactive
25 | COCC(=O)N1[C@H](C(=O)N2CCN(C)CC2)[C@@H](CO)[C@@H]2Cn3c(ccc(C4=CCCCC4)c3=O)[C@@H]21 | inactive | inactive | inactive
26 | C[C@H]1CN([C@@H](C)CO)C(=O)c2cc(NC(=O)Nc3ccccc3)ccc2O[C@H]1CN(C)S(=O)(=O)c1cn(C)cn1 | inactive | inactive | inactive
27 | Cc1ccc(S(=O)(=O)Nc2ccc3c(c2)C(=O)N([C@@H](C)CO)C[C@H](C)[C@@H](CN(C)Cc2ccc(Cl)c(Cl)c2)OCCCC[C@H](C)O3)cc1 | active | active | inactive
28 | CO[C@H]1C[C@H](O[C@H]2[C@H](C)O[C@@H](O[C@@H]3/C(C)=C/C[C@@H]4C[C@@H](C[C@]5(C=C[C@H](C)[C@@H](C6CCCCC6)O5)O4)OC(=O)[C@@H]4C=C(C)[C@@H](O)[C@H]5OC/C(=C\C=C\[C@@H]3C)[C@]54O)C[C@@H]2OC)O[C@@H](C)[C@@H]1O | inactive | inactive | inactive
29 | Cc1noc(C)c1S(=O)(=O)Nc1ccc2c(c1)C(=O)N([C@@H](C)CO)C[C@H](C)[C@@H](CN(C)Cc1ccncc1)O2 | inactive | inactive | inactive
30 | FC(F)(F)C(Cl)Br (stereo not given) | inactive | inactive | inactive
31 | C[C@@H](NC(=O)N(C)C[C@H]1OCc2ccccc2-c2c(n(C)c3ccccc23)C(=O)N([C@@H](C)CO)C[C@@H]1C)c1ccccc1 | inactive | inactive | inactive
32 | Cc1ccc(S(=O)(=O)Nc2ccc3c(c2)CC(=O)N([C@@H](C)CO)C[C@H](C)[C@H](CN(C)S(=O)(=O)c2cn(C)cn2)O3)cc1 | inactive | inactive | inactive
33 | Cc1noc(C)c1NC(=O)Nc1ccc2c(c1)C(=O)N([C@H](C)CO)C[C@@H](C)[C@@H](CN(C)Cc1ccncc1)OCCCC[C@H](C)O2 | inactive | inactive | inactive
34 | C[C@@H]1CN([C@H](C)CO)C(=O)Cc2cc(NC(=O)CCC(F)(F)F)ccc2O[C@H]1CN(C)Cc1ccc(Oc2ccccc2)cc1 | inactive | active | inactive
35 | C[C@H]1CN([C@@H](C)CO)C(=O)CCCn2cc(nn2)CO[C@@H]1CN(C)Cc1ccc2c(c1)OCCN2C | inactive | inactive | inactive
36 | COc1ccc(NC(=O)N(C)C[C@@H]2Oc3c(NS(=O)(=O)c4cn(C)cn4)cccc3C(=O)N([C@H](C)CO)C[C@@H]2C)cc1 | inactive | inactive | inactive
37 | O=S(=O)(O)O/N=C(\Cc1ccc(O)cc1)S[C@H]1O[C@H](CO)[C@@H](O)[C@H](O)[C@H]1O | inactive | inactive | inactive
38 | C[C@H]1CN([C@@H](C)CO)C(=O)c2cc(NC(=O)c3ccncc3)ccc2O[C@@H]1CN(C)C(=O)Nc1ccc2c(c1)OCO2 | inactive | inactive | inactive
39 | CCCNC(=O)N(C)C[C@@H]1Oc2cc(-c3ccccc3F)ccc2S(=O)(=O)N([C@H](C)CO)C[C@H]1C | inactive | inactive | inactive
40 | CO[C@H](CN(C)C(=O)c1ccc2c(c1)OCO2)[C@@H](C)CN([C@@H](C)CO)S(=O)(=O)c1ccc(C)cc1 | inactive | inactive | inactive
41 | C[C@@H]1CN([C@@H](C)CO)C(=O)Cc2cc(NC(=O)CCCN(C)C)ccc2O[C@H]1CN(C)S(=O)(=O)c1cccs1 | inactive | inactive | inactive
42 | C[C@@H]1[C@@H]([Si](C)(C)F)[C@H](CC(=O)N(CCO)Cc2ccccc2)O[C@@]12C(=O)N(c1ccccc1)c1ccccc12 | inactive | active | inactive
43 | COc1ccc(NC(=O)N(C)C[C@@H]2OCCCC[C@@H](C)Oc3ccc(NC(=O)CCC(F)(F)F)cc3C(=O)N([C@H](C)CO)C[C@H]2C)cc1 | inactive | inactive | inactive
44 | CO[C@H](CN(C)C(=O)C1CCOCC1)[C@@H](C)CN(C(=O)Nc1ccc(C(F)(F)F)cc1)[C@@H](C)CO | inactive | inactive | active
45 | Nc1ccc(OCc2ccccc2)cc1 | inactive | inactive | inactive
